# Results from PubChem BioAssay AID1347073 (National Center for Advancing Translational Sciences (NCATS), 2019).
# About 200 (0.44%) of roughly 45,000 compounds were called active. Inconclusive results (about 7%) are left out. Calls come from the whole dose curve; as a rule, active = well fitted activation curve with a large enough effect; inconclusive = small, poorly fitted or top-dose-only effect; inactive = no such curve, though single readings can be large or run the other way. The list shows a part of the results.
# Assay: qHTS of TDP-43 Inhibitors: NCGC Sytravon Library Screen; note: 0% is about no effect; nearly all actives have a fitted effect of over 55% in size
# Conditions: yeast TDP-43 toxicity rescue, BacTiter-Glo growth, 24 h; series mostly up to 46.1 µM; growth rescue (activation): at the top concentration
# Procedure, shortened: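 TDP-43-expressing yeast, pregrown in raffinose, seeded at OD600 0.02 in galactose medium with compound for 24 hr at 30 deg C. Growth read by BacTiter-Glo luminescence, so rescue of toxicity appears as activation.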
row,Structure (SMILES),growth rescue (activation)
1,COCCC(=O)N1CCC(Oc2ccc(C(=O)NCc3cccc(C)n3)cc2)CC1,inactive: -10.4%
2,COc1ccccc1-c1ccc2c(c1)C(C)(Cc1cccc(C#N)c1)C(=O)N2 (stereo not drawn),inactive: 11.1%
3,N#C/C(=C\c1ccc(OC(=O)c2ccc(Br)s2)cc1)c1nc2ccccc2[nH]1,inactive: -10.3%
4,CCOCCOc1nc(C)cc(C)c1S(=O)(=O)c1ccccc1C,inactive: 12.5%
5,CN(C1CCS(=O)(=O)C1)S(=O)(=O)c1ccccc1 (stereo not drawn),inactive: 5.42%
6,CC(=O)c1ccc(N(C(=O)CS(=O)CC(=O)Nc2ccc(F)cc2)C(C(=O)NC2CCCCC2)c2cccs2)cc1 (stereo not drawn),inactive: 13.4%
7,CN(C)c1nc(C#N)nc(N(C)C)n1,inactive: 6.16%
8,CCOc1ccc(CNS(=O)(=O)c2c(C)nc3scc(C)n3c2=O)cc1OC,inactive: -11.4%
9,Cc1cccc(N2CCC(N3CCN(C4CCCCC4)C(CCO)C3)CC2)c1C (stereo not drawn),inactive: -1.5%
10,N=c1sccn1CC(=O)NCc1ccc(Cl)cc1Cl,inactive: -4.76%
11,CC(Cc1cccs1)NC(=S)Nc1ccccc1 (stereo not drawn),inactive: 19.4%
12,COc1ccccc1N(Cc1cc(=O)[nH]c2ccccc12)C(=O)c1ccccc1,inactive: -9.22%
13,CCOC(=O)CCCNC(=O)CSc1nnc(-c2ccccc2)c(-c2ccccc2)n1,inactive: 7.92%
14,OC(COc1ccc(CNCCc2ccccc2F)cc1)CN1CCCCC1 (stereo not drawn),inactive: -11.4%
15,Cc1ccc(N(CC(=O)NCc2ccco2)C(=O)CCC(=O)Nc2nccs2)cc1C,inactive: 9.59%
16,CC(C)NC(=O)C1CCCN(S(=O)(=O)c2cccc3nonc23)C1 (stereo not drawn),inactive: 5.26%
17,CCOc1ccc(Oc2c(/C=N/NC(N)=O)c(C)nn2-c2ccccc2)cc1,inactive: 15.8%
18,COC(=O)c1ccc(NC(=S)N2CCN(C)CC2)cc1,inactive: -15.6%
19,COc1ccc(OCc2nnc(SCC(=O)NCC3CCCO3)n2N)cc1 (stereo not drawn),inactive: -10.6%
20,COc1ccccc1CNC(=O)C1(C)CCN1Cc1ccc2ccccc2c1 (stereo not drawn),inactive: -0.274%
21,CCCSc1cc(NCCOC(C)=O)c([N+](=O)[O-])c2nonc12,inactive: 10.9%
22,CCOC(=O)C1(Cc2ccccc2C)CCCN(C(=O)CCn2nccc2C)C1 (stereo not drawn),inactive: -7.23%
23,CN(C)CCCn1c(=O)n(C2CCCCC2)c(=O)c2c3c(sc21)CCCCC3,inactive: 4.01%
24,CCCC(C(=O)NC1CCCC1)N(C(=O)Cn1nnc(-c2ccc(C)o2)n1)c1ccccc1F (stereo not drawn),inactive: -0.756%
25,CC1(C)Cc2c(C#N)c(NCCN3CCOCC3)nc(-c3ccccc3)c2CO1,inactive: 15.2%
26,Cc1ccc(C2c3c(oc4ccccc4c3=O)C(=O)N2c2nncs2)cc1 (stereo not drawn),inactive: 26.9%
27,COc1ccccc1NC(=O)N[C@@H](Cc1c[nH]c2ccccc12)C(=O)NN,inactive: -8.16%

row,Structure (SMILES),growth rescue (activation)
1,O=Cc1cc([N+](=O)[O-])ccc1N1CCOCC1,inactive: 4.79%
2,COc1ccc(-n2c3c(c(=O)[nH]c2=O)C(NS(=O)(=O)c2ccc(Cl)cc2)(C(F)(F)F)C(=O)N3)cc1 (stereo not drawn),inactive: 3.54%
3,CN(C)c1ccc(C2(O)C(=O)c3ccccc3C2=O)cc1,inactive: -0.719%
4,COCC(CN1CCN(C2=NS(=O)(=O)c3ccccc32)CC1)OC(=O)c1ccc(OC)cc1 (stereo not drawn),inactive: 3.47%
5,Cc1cc(C)n(/N=C/c2cc([N+](=O)[O-])ccc2O)c(=O)c1,inactive: -47.7%
6,CCN(CC)c1ccc(/C=N/NC(=O)Cc2cccs2)c(O)c1,inactive: -20.7%
7,C=CCN(c1ccc(C(=O)Nc2cc(C)cc(C)c2)cc1)S(C)(=O)=O,inactive: 12.5%
8,Cc1csc(SCC(=O)NC(C)c2ccccc2)n1 (stereo not drawn),inactive: 21.8%
9,CCOC(=O)C(CCCP(=O)(c1ccccc1)c1ccccc1)(NC(C)=O)C(=O)OCC,inactive: -8.66%
10,O=C(NCCN1CCOCC1)c1ccc(NC(=O)C2COc3ccccc3O2)cc1 (stereo not drawn),inactive: 14.3%
11,CCOC(=O)C1=C(C)NC(=S)NC1/C=C/c1ccccc1 (stereo not drawn),inactive: -2.84%
12,Cc1cc(C)n(C(C)CNS(=O)(=O)c2ccc(C)c(C)c2)n1 (stereo not drawn),inactive: -6.97%
13,O=C(Nc1ccc(N2CCN(C(=O)c3cccs3)CC2)cc1)c1cccnc1,inactive: -1.98%
14,CCCCc1cc(=O)oc2c(CN(CC)CC)c(O)c(Cl)cc12,inactive: 15.9%
15,N#CCSc1nc2ccccc2c(=O)n1CCCC(=O)NCC1CCCO1 (stereo not drawn),inactive: 10.5%
16,COc1ccc(-c2nc(C(=O)O)cs2)cc1OC,inactive: 4.64%
17,CN(CC(=O)NCc1ccc2c(c1)OCO2)S(=O)(=O)c1ccc(F)cc1,inactive: -1.34%
18,O=C(CSc1ncn[nH]1)N1N=C2/C(=C\c3ccco3)CCCC2C1c1ccco1 (stereo not drawn),inactive: -3.5%
19,COc1cc(C(=O)NC2CCN(Cc3ccccc3)CC2)cc(Cl)c1OC(C)C,inactive: 4.58%
20,CCCc1cc(=O)[nH]c(SCC(=O)NC2CCCCCCC2)n1,inactive: -2.16%
21,COc1cc2c(cc1OC)C(C)N(C(=O)C(NC(=O)c1ccccc1)C(C)C)CC2 (stereo not drawn),inactive: 16.3%
22,Cc1ccc(S(=O)(=O)n2c([N+](=O)[O-])cnc2C)c(C)c1C,inactive: 2.88%
23,CCOc1c(O)ccc(C2NC(=O)NC(C)=C2C(=O)OC)c1[N+](=O)[O-] (stereo not drawn),inactive: 1.99%
24,N#Cc1ccc(NC(=O)CCc2nc3ccccc3s2)cc1,inactive: 23.7%
25,CCOc1ccccc1NC(=O)NCCC1=CCCCC1,inactive: -6.38%
26,CCC(C)N(C(=O)c1csnn1)C(C(=O)NC1CCCC1)c1ccccc1F (stereo not drawn),inactive: -7.47%
